Results are given in words; binding and its absence hold for the method and conditions named. Binding seen in cells or lysates may run through a third protein. Some binding calls cover weakened binding; strength is not graded here. For part of these data: Tags and fused reporters may be left off the sequences shown.

Amino acid sequences for entries named in this document (tags omitted). A change or cut given only in a name is not applied to a line headed by its entry.
UniProt Q9UJA3: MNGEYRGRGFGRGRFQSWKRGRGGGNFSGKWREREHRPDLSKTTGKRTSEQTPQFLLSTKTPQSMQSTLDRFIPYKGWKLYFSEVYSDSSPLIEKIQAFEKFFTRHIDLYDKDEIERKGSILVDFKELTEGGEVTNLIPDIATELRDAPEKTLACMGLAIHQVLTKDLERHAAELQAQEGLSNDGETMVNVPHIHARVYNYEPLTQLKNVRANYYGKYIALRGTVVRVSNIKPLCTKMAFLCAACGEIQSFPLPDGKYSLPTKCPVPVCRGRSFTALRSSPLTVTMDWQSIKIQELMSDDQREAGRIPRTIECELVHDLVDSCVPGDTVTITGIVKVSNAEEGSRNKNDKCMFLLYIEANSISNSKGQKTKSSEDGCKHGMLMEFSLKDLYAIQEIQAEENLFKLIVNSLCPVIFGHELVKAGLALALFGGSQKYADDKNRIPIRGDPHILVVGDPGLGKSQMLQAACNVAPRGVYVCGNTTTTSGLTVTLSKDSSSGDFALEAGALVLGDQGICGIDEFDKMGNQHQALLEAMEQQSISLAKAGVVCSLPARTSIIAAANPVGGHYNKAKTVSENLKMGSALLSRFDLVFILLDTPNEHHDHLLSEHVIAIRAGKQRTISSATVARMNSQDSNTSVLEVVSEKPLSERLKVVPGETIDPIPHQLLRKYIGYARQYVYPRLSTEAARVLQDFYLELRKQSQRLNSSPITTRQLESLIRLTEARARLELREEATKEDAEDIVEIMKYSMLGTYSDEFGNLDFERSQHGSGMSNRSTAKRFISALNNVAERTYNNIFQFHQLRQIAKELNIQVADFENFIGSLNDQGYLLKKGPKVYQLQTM
UniProt Q9NXL9: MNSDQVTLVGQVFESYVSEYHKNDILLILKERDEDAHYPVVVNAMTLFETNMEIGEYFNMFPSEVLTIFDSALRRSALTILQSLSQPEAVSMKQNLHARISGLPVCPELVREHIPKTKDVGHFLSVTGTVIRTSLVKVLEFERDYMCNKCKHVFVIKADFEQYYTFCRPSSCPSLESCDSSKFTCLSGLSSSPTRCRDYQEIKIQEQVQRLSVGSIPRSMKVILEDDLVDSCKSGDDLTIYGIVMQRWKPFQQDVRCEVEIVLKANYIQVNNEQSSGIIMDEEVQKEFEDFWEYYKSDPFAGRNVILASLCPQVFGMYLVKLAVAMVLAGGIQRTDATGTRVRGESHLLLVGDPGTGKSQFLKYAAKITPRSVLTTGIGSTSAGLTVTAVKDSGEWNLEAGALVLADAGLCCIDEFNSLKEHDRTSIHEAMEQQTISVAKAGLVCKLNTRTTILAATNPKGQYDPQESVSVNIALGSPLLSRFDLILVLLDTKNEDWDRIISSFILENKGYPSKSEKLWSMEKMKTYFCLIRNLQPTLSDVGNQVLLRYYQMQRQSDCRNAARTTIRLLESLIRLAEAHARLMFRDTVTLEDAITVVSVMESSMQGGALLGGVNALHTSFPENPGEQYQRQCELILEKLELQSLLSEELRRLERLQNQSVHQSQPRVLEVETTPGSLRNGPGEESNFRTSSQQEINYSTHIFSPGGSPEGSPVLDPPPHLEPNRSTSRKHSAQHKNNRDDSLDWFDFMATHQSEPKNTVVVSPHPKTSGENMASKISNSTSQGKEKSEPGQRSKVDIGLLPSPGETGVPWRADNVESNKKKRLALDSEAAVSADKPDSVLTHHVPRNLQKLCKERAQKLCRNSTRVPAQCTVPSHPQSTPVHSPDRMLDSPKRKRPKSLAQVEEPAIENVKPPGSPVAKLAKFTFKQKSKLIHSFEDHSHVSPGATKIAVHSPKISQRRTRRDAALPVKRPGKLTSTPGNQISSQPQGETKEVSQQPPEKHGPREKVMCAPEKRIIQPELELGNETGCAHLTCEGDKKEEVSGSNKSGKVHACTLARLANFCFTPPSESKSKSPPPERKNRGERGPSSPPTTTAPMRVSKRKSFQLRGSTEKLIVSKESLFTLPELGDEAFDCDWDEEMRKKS

Binding data for six substances are collected here from article PMC7347845.

Test [1] deals with T1, endogenous HORMAD1 (MDAH2774 cells) (human (endogenous in MDAH2774)) (UniProt Q86X24).
T1 sequence: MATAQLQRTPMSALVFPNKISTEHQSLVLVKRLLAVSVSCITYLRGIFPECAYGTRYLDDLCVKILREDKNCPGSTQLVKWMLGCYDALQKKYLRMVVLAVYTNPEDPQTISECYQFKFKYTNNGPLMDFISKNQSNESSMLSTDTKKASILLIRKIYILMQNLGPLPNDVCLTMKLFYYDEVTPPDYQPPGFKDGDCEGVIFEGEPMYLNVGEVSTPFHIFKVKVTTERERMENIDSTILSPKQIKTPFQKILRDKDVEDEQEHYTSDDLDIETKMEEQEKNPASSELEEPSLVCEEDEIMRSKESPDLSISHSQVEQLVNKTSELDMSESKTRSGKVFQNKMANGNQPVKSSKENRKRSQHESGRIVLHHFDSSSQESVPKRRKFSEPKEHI
Nature of the test: co-IP; endogenous HORMAD1 and MCM8–MCM9 complex in MDAH2774 cells with or without stably expressed HA-MCM9 HIM.

Test [2] deals with T1, endogenous HORMAD1 (MDAH2774 cells) (human (endogenous in MDAH2774)). In words: condition: only in MDAH2774 cells stably expressing the competitor HA-MCM9 HIM; co-IP; endogenous HORMAD1 and MCM8–MCM9 complex in MDAH2774 cells with or without stably expressed HA-MCM9 HIM.
Test [3] shares this target. In words: co-IP; reciprocal co-IP of endogenous proteins with indicated antibodies in WT and HORMAD1 KO MDAH2774 cells; whole cell lysate and nuclear extract.
The target of test [4] is T2, S-Flag-streptavidin binding protein (SFB)-tagged HORMAD1 (human (cDNA from MDAH2774 cells)) (UniProt Q86X24).
T2 sequence: T1 sequence
In words: co-IP; SFB-tagged HORMAD1 (WT or deletion mutant) and HA-tagged MCM8, MCM9 or MCM9 HIM in 293T cells; lysis in NETN300, streptavidin-conjugated beads or antibodies with protein A sepharose 2 h at 4 °C, washes in NETN100, western blotting. (In general: In western blotting, separated proteins are transferred to a membrane and probed.)

The target of test [5] is T3, SFB-tagged HORMAD1ΔC (Δ237–394 amino acids) (human (cDNA from MDAH2774 cells)) (UniProt Q86X24).
T3 sequence: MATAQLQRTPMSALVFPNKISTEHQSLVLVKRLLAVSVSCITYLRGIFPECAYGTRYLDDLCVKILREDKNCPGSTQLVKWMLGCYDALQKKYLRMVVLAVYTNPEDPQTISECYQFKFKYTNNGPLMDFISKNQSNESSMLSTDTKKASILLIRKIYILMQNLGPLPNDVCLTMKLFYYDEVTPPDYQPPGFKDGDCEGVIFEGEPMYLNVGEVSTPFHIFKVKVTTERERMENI
The test is described as above.

With “endogenous MCM8 (MDAH2774 cells) (from UniProt Q9UJA3 1-840)”, the binding result is reported as “binds” in test [1], “no binding” in test [2] and “binds” in test [3].

Regarding “endogenous MCM9 (MDAH2774 cells) (from UniProt Q9NXL9 1-1143)”, the figures for the binding entry in test [1], in test [2] and in test [3] were “binds”, “no binding” and “binds”, respectively.

As for “HA-tagged MCM8 (from UniProt Q9UJA3 1-840)”, the binding entry in test [4] and in test [5] was “binds” in each case.

For the substance “HA-MCM9 HIM stably expressed in MDAH2774 cells (from UniProt Q9NXL9 703-766) (domain or fragment)”, in test [1], the binding entry is “binds”.

On to “MCM9 HIM (HORMAD1-interacting motif, amino acids 703–766), in 293T cells (from UniProt Q9NXL9 703-766) (domain or fragment)”, for which, in test [4], the binding entry was “binds”.

Take “HA-tagged MCM9 (from UniProt Q9NXL9 1-1143)”: the binding entry in test [4] and in test [5] was “binds” throughout.
